# According to ChEMBL document CHEMBL4888484, “Replenishing the malaria drug discovery pipeline: Screening and hit evaluation of the MMV Hit Generation Library 1 (HGL1) against asexual blood stage Plasmodium falciparum ,using a nano luciferase reporter read-out” (2022):
# The campaign covered roughly 150,000 compounds. About 540 (0.36%) showed an effect of 50% or more. This is one part of the list.
# Test system: Plasmodium falciparum
# Assay: Primary screen in NF54 nanoGlo assay, in single point, at 2uM, 72h; a lower Z score goes with more inhibition
# Assay type: functional, Erythrocyte
# Conditions: timepoint 72 hour
SMILES,% Inhibition [%],Z score
CCc1nc(N)sc1C(=O)N1C[C@@H]2CC[C@H]1CN(Cc1cccnc1)C2,-2,0.33
CO[C@H]1COCC[C@@H]1NC(=O)c1cccc(N2CCS(=O)(=O)CC2)c1,-3,0.55
O=C([C@@H](O)Cc1ccccc1)N1CCS(=O)(=O)c2ccccc2C1,5,-0.59
COc1cnc(C(=O)NC[C@H](NC(=O)OC(C)(C)C)C2CC2)c(F)c1,-8,1.41
Cc1ccc2oc(-c3nnc(C(=O)NC4CCCCCCC4)o3)c(C)c2c1,-3,0.57
CC(CN1CCOCC1)NC(=O)NC(C(=O)N(C)C)c1ccccc1 (stereo unspecified),-2,0.35
CC(C)(C)OC(=O)N1CCC[C@H](N(CC(=O)NC2CC2)Cc2cncnc2)CC1,7,-1.28
CCOC(=O)CN(CCOC)CC(=O)Nc1ccc(Cl)cc1F,-9,1.09
O=C(Cn1cnc2c(c1=O)CCCC2)Nc1ccc(Br)cc1F,-7,0.86
O=C(c1cscn1)N1CC[C@H](n2cc(COCC3CC3)nn2)C1,-13,1.92
CCOc1cc(N2CC[C@H](C(=O)Nc3cn[nH]c3)C2)nc(C)n1,9,-1.73
CC(C)=CCO[C@H]1COCC[C@@H]1NC(=O)c1nnc2n1CCCCC2,-8,0.95
CCCN(CC(=O)N(Cc1cccc(Cl)c1)C1CCN(C(=O)C(C)C)CC1)S(=O)(=O)c1ccc(C)cc1,-7,1.03
CC(=O)c1ccc(F)cc1-c1cccc(C(=O)NC2(CO)CCCCC2)c1,6,-0.6
COc1ccc(C(=O)N2CCN=C2N2CCCCC2)cc1,-7,0.71
Cc1ccc([C@H]2CN(C(=O)c3ccc(-n4cnnn4)cc3)C[C@@H]2N(C)C)cc1,1,-0.08
CC(C)C[C@@]1(CO)N[C@H](c2cccc3c2OC(C)(C)C3)[C@@H]2CN(C)C[C@@H]21,1,-0.17
CCOc1nc(-c2ccc(F)cc2)n(-c2cccc(NC(=O)c3cccs3)c2)n1,6,-0.71
COc1cc(OC)cc([C@@H](CC(=O)NCCN2CCCCC2)c2cn(Cc3ccc(F)cc3)c3ccccc23)c1,0,0.04
O=C(NCC(=O)N1CCC(Oc2cccc3cccnc23)CC1)OCc1ccccc1,-11,2.02
N#Cc1cccc(C(=O)N2CCCn3nc(-c4cccs4)cc3C2)c1,-20,3.71

SMILES,% Inhibition [%],Z score
CCn1nc(C(=O)N2CCN([C@@H](C)c3ccccc3)CC2)cc1-c1cccc(Cl)c1,-8,1.28
C[C@@H](Cc1cc2ccccc2o1)NC(=O)c1cccn(C)c1=O,-18,3.13
O=C(NCc1ccc(S(=O)(=O)N2CCOCC2)s1)c1ccc(F)c(Cl)c1,-8,0.83
Cc1ccc([C@@]2(C(=O)NC(C)(C)C(=O)O)CC2(C)C)cc1,-1,0.09
S=c1oc2ccccc2n1CN1CCN(c2ccccn2)CC1,-3,0.47
CCOCC1(CNC(=O)c2cc(=O)cc(C)[nH]2)CC1,-11,1.18
CC(C)C(=O)N1CC(C)(C)c2cc(S(=O)(=O)N[C@H]3CCCc4ccccc43)ccc21,0,0.01
Cc1cc(F)ccc1-n1cc(C(=O)N(C)CCCn2ccnc2C)nn1,-12,1.55
CC(C)C[C@]1(C)NC(=O)N(CC(F)F)C1=O,-4,0.37
Cc1ccc(C(=O)O)c(N2Cc3cnc(-c4ccccc4)nc3C2)n1,1,-0.12
CC[C@H](C)CNC(=O)c1ccccc1N1CCC(NC(=O)c2ccco2)CC1,3,-0.27
Cc1ccc(CN(CCN(C)C)C(=O)c2cn(C)c3ccccc23)s1,-8,1.02
CN1CCC(NC(=O)NCC2(Cc3ccccc3)CCC2)CC1,-16,1.66
C[C@H]1[C@@H](NC(=O)[C@@H]2CC2(C)C)CCS1(=O)=O,-10,1.28
COC(=O)c1ccc(CNCCc2ccncc2C)n1C,-1,0.14
O=C(c1cc[nH]n1)N1CCc2sccc2C1,-17,2.68
CN(CC(=O)NC1CCCCCC1)c1nnc(N2CCCC2=O)s1,-8,1.11
CCC(CC)N1C[C@@H](C(=O)NCc2cccnc2-n2ccnc2)CC1=O,4,-0.64
Cc1ccc(C)c(C2CCCN2C(=O)C2CC3CCC2O3)c1 (stereo unspecified),-6,0.77
O=C(c1cnn2ccccc12)N(CCN1CCOCC1)Cc1ccco1,-5,0.79
CCOC(=O)Cc1csc(NC(=O)c2sc(C)nc2C(C)C)n1,-3,0.33

SMILES,% Inhibition [%],Z score
CC[C@H](NC(=O)Cn1cc(Cl)c(C)n1)c1ncnn1C,-10,0.91
CCN(c1ccncc1)S(=O)(=O)[C@H]1CCCN(C(=O)C2CCCC2)C1,-7,0.86
Cc1cc(-c2nc(CC(C)C)nn2C(C)(C)C)nn1C,0,-0.05
COC(=O)C1C2CCC(C(=O)OC)(CC2)C1C(=O)Nc1ccccc1 (stereo unspecified),-14,1.86
Cc1ncc(S(C)(=O)=O)c(N(C)Cc2cc(C3CC3)[nH]n2)n1,-8,0.81
O=C(NC[C@H]1COc2ccccc2O1)c1ccc(S(=O)(=O)N2CCCCCC2)cc1,-1,0.11
CCN(c1ccccc1)S(=O)(=O)CC1CN(S(C)(=O)=O)C1,-5,0.73
CC[C@H](Nc1ncnc2c1c(C)nn2C)c1ccnn1C,-13,1.26
C[C@H](NC(=O)c1ccccc1C1(C)CC1)c1cscn1,14,-1.9
C[C@@]1(C(=O)N2CCC(n3cc(CN4CCCC4)nn3)CC2)CCCO1,-18,1.59
C[C@H]1CN(c2nnc(-c3ccccc3Cl)s2)CCS1(=O)=O,-12,1.72
O=C(C1c2ccccc2Oc2ccccc21)N1CCCN(C(=O)C2c3ccccc3Oc3ccccc32)CC1,-3,0.39
COCCNc1nc(-c2cc(F)cc(F)c2)cc(-c2c(C)nn(C)c2C)n1,-8,1.09
Cc1cc(CC(=O)N[C@H]2CCCN(Cc3cccc(O)c3)C2)on1,5,-1.09
Cc1noc(C2CCN(C(=O)c3cnc4sc(C)cn4c3=O)CC2)n1,-8,1.07
CCC[C@H](C)N1CC2(CCN(C(=O)c3cccc4nccnc34)CC2)OC1=O,-1,0.25
CC(Nc1ccncc1NC(=O)c1cccc(C#N)c1)C1CCCO1 (stereo unspecified),-9,1.84
C[C@H](NC1(c2ccccc2)CCCC1)c1cncc(F)c1,-6,1.17
COc1ccc(-c2noc(-c3ccc(N(C)Cc4cnn(C)c4)nc3)n2)cc1,-6,0.73
CC(C)Cc1cc(CN(C)[C@@H](CO)C(C)C)n[nH]1,-6,1.06
O=C1CC[C@@H](C(=O)N2CCCn3cc(-c4ccccc4)nc32)N1,-9,1.5

SMILES,% Inhibition [%],Z score
Cc1cc(C(=O)NCc2ccncc2)c(=O)n(C)c1C,-11,1.52
CC(=O)Nc1ccc(NC(=O)c2cc3c(s2)CCCCCC3)cc1,-3,0.28
CN(CC(=O)N(C)C(C)(C)C#N)c1c(F)cccc1F,-3,0.52
CCCn1nccc1-c1ccc(N2CCN(C)CC2)nn1,-7,1.11
CC1CC(c2ccccc2)CCN1C(=O)c1cc(C2CC2)on1 (stereo unspecified),36,-5.25
Cc1cnc(C)c(N2CCC(c3nccn3Cc3cccnc3)CC2)n1,0,0.06
CNC(=O)[C@@H]1CCCN1C(=O)Nc1csc(-c2ccccn2)n1,1,-0.22
O=C(CNC(=O)NCC1CC12CCc1ccccc12)NCC1CC1 (stereo unspecified),8,-1.1
CN(C)c1nccc(N2CCC[C@H](c3nncn3C)C2)n1,-2,0.37
O=C(N[C@H]1CCOC[C@@H]1O)[C@H]1C[C@@H]1c1ccc(OC(F)F)cc1,-9,1.22
O=C(Cc1cccs1)Nc1ccc(N2CCN(c3ccccc3F)CC2)c(S(=O)(=O)NCc2ccc3c(c2)OCO3)c1,-1,0.14
COC(C)(C)C(=O)Nc1ccc(F)cc1C,-11,1.77
CCOC(=O)c1nsc(Cl)c1Cl,4,-0.44
Nc1ccnc(N2CCC[C@@](CO)(CCc3ccccc3)C2)n1,-6,0.91
C1=CCC2CN(c3ncnc4[nH]ncc34)CC2C1 (stereo unspecified),27,-2.26
CN(C(=O)N1C[C@@H]2CC[C@H]1CN(S(=O)(=O)N(C)C)C2)c1ccccc1,-15,2
CC(C)Oc1ccc(F)cc1NC(=O)CC(C)(C)C(=O)O,-12,2.25
Cc1c(C(=O)N2CCn3ccnc3[C@@H]2C(C)C)cc(-c2ccccc2)n1C,1,-0.13
N#CC1CCN(CCc2ccc3c(c2)CCO3)CC1,-4,0.64
O=C(CCC(=O)Nc1ccc(S(=O)(=O)N2CCc3ccccc32)cc1)Nc1ccc(S(=O)(=O)N2CCc3ccccc32)cc1,-5,0.69
